Values marked as one replicate rest on one cluster of the flow cell; about a third of the high ones do not repeat.
Tested on: ATP
Assay: switch fluorescence ratio, 500 uM ATP over buffer (Cy3 cluster intensity, sum of 5 cycles each) (fold (ratio)); higher = stronger signal-on switching upon ATP binding; sequences stand for … in TCGTCGGCAGCGTCAGATGTGTATAAGAGACAGTTTTTTTTTTTTTTTTTTTTTTTTT…TC
Details: aptamer strand: ATP DNA aptamer (quencher-CACCTGGGGGAGTATTGCGGAGGAAGG + anchor), 100 nM annealed; ATP concentration: 500 uM; one replicate
Outline: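 Clusters with intensities outside 100-1000 RFU were excluded. The remaining Cy3-labelled switching-strand clusters on a modified Illumina MiSeq flow-cell had been annealed to 100 nM quencher-labelled ATP aptamer and imaged in selection buffer, then after 15 min with 500 uM ATP at 22 °C, for five cycles separated by NaOH stripping and re-annealing. The fluorescence ratio, averaged per switch-domain sequence, is each cluster's summed target-cycle Cy3 intensity over its summed buffer-cycle Cy3 intensity.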
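Further: ATP exposure 15 min at 22 °C before imaging.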

Row | Sequence | switch fluorescence ratio
1 | TCTCGTATCT | 0.941
2 | TCTCGTCATT | 1.03
3 | TCTCGTGGCG | 1.07
4 | TCTCGTTCTT | 0.943
5 | TCTCTATTG | 0.997
6 | TCTCTCAGAG | 0.996
7 | TCTCTGATCG | 1.02
8 | TCTCTGGATT | 1.02
9 | TCTGAAAATA | 1.91
10 | TCTGAAAGG | 0.965
11 | TCTGAAGTG | 0.973
12 | TCTGAGAAGG | 1.02
13 | TCTGAGGCTG | 1.05
14 | TCTGAGTGTT | 0.981
15 | TCTGATA | 0.98
16 | TCTGATAGCC | 1.09
17 | TCTGCATGCG | 1.08
18 | TCTGCGTAAC | 1.48
19 | TCTGCGTCCC | 1.03
20 | TCTGCTGGGC | 1.04
21 | TCTGGCACTA | 1.05
22 | TCTGGCGAG | 1.08
23 | TCTGGGAGAT | 1.07
24 | TCTGGGCAGG | 1.03
25 | TCTGGGGACT | 0.968
26 | TCTGGGTATA | 1.01

Row | Sequence | switch fluorescence ratio
27 | TCTGGTCG | 1.01
28 | TCTGTAATTG | 1.01
29 | TCTGTACCAG | 1.03
30 | TCTGTATATT | 1
31 | TCTGTATCAA | 1.07
32 | TCTGTCGCAC | 5.17
33 | TCTGTCGCGG | 1.01
34 | TCTGTCTTAG | 0.996
35 | TCTGTCTTCT | 0.99
36 | TCTGTGTATC | 0.974
37 | TCTGTGTCTG | 0.955
38 | TCTGTTCAAT | 0.999
39 | TCTGTTCGAG | 1.01
40 | TCTGTTGTCA | 0.97
41 | TCTTAAATTA | 0.967
42 | TCTTACATCA | 1.09
43 | TCTTACCAGC | 1
44 | TCTTAGAAGG | 1.02
45 | TCTTAGACGG | 1.01
46 | TCTTAGGCCT | 1.01
47 | TCTTAGTTGA | 1.02
48 | TCTTATATTG | 0.97
49 | TCTTATGGAG | 0.979
50 | TCTTCAACAG | 2.01
51 | TCTTCAAGAA | 0.988
52 | TCTTCAGGGT | 0.984

Row | Sequence | switch fluorescence ratio
53 | TCTTCCGTAT | 1.68
54 | TCTTCCTTAA | 1.09
55 | TCTTCGTAAC | 2.16
56 | TCTTCTAGA | 0.949
57 | TCTTCTTCGC | 1.68
58 | TCTTGAACCA | 0.983
59 | TCTTGACGGG | 1.04
60 | TCTTGACTCG | 0.986
61 | TCTTGAGAAT | 1.01
62 | TCTTGCGAC | 1.16
63 | TCTTGCTTCA | 1.01
64 | TCTTGGCCGT | 0.98
65 | TCTTGGTATG | 0.995
66 | TCTTGGTGGA | 0.988
67 | TCTTGTCGCA | 1.05
68 | TCTTGTGGTA | 0.984
69 | TCTTGTGTGG | 1.02
70 | TCTTTAAACG | 0.994
71 | TCTTTAATGT | 0.997
72 | TCTTTAGCCA | 0.967
73 | TCTTTAGTCT | 1.01
74 | TCTTTATT | 0.994
75 | TCTTTGAGCC | 0.982
76 | TCTTTGCCGG | 0.985
77 | TCTTTGCTTA | 0.965
78 | TCTTTTAAAA | 1.12

Row | Sequence | switch fluorescence ratio
79 | TCTTTTAGC | 1.03
80 | TCTTTTCACC | 1.04
81 | TCTTTTGGCC | 1.03
82 | TCTTTTTAA | 0.962
83 | TCTTTTTCGG | 1.03
84 | TGAAAAGAGT | 0.971
85 | TGAAAATAAA | 1.01
86 | TGAAAATTT | 1.01
87 | TGAAACGATT | 1.01
88 | TGAAACGGGT | 0.982
89 | TGAAACTGAG | 1.07
90 | TGAAAGAATG | 0.976
91 | TGAAAGATAG | 0.989
92 | TGAAAGGGG | 1.01
93 | TGAAAGTGC | 1.09
94 | TGAAATGTCA | 1.05
95 | TGAACGGCTG | 1.09
96 | TGAACGTGC | 1.02
97 | TGAAGAATAG | 0.972
98 | TGAAGAGTGG | 0.952
99 | TGAAGATTGA | 1.04
100 | TGAAGCTGG | 0.979
101 | TGAAGCTGGT | 0.999

— the supplement of paper PMC10126150
